The labels stand for the following.
B1: PhoQ; a variant is named by its letters at X, in order, P23837 (parent)
chain: MKKLLRLFFPLSLRVRFLLATAAVVLVLSLAYGMVALIGYSVSFDKTTFRLLRGESNLFYTLAKWENNKLHVELPENIDKQSPTMTLIYDENGQLLWAQRDVPWLMKMIQPDWLKSNGFHEIEADVNDTSLLLSGDHSIQQQLQEVREDDDDAEMTHSVAVNVYPATSRMPKLTIVVVDTIPVELKSSYMVWSWFIYVLSANLLLVIPLLWVAAWWSLRPIEALAKEVRELEEHNRELLNPATTRELTSLVRNLNRLLKSERERYDKYRTTLTDLTHSLKTPLXXLQXXLRSLRSEKMSVSDAEPVMLEQISRISQQIGYYLHRASMRGGTLLSRELHPVAPLLDNLTSALNKVYQRKGVNISLDISPEISFVGEQNDFVEVMGNVLDNACKYCLEFVEISARQTDEHLYIVVEDDGPGIPLSKREVIFDRGQRVDTLRPGQGVGLAVAREITEQYEGKIVAGESMLGGARMEVIFGRQHSAPKDE

The list shows a part of the results. Some results are limits rather than exact numbers.

In this assay the parent is B1. Put plainly: enrichment ratio after two sorts for PhoP signalling (ratio (wild type AVST 3.29)); higher = more functional. The note with it: with PhoP (E. coli).
As to FQTP, the enrichment ratio is at most 0.25. Turning to NGGS, the enrichment ratio was at most 0.25. Take HWRT: the enrichment ratio is at most 0.25. For IPQY the value was at most 0.25; for YCNQ, at most 0.25; for WFTD, at most 0.25. As to GGVC, the enrichment ratio was at most 0.25. As to MKQP, the enrichment ratio is at most 0.25. In the case of HPEW, the enrichment ratio was at most 0.25. Regarding YRHR, the enrichment ratio was at most 0.25. The same measure for NYME: at most 0.25; for AACV: 16.2; for AFFE: at most 0.25. As to TQAC, the enrichment ratio is 4.85. In the case of IWAL, the enrichment ratio is at most 0.25. For QNWR, the enrichment ratio was at most 0.25. Regarding IWKI, the enrichment ratio was at most 0.25. For DKFQ, the enrichment ratio is at most 0.25. Regarding ETMD, the enrichment ratio is at most 0.25.

On to PQYN, for which the enrichment ratio is at most 0.25.

For the variant QFRA, the enrichment ratio was at most 0.25. As for PQHF, the enrichment ratio was at most 0.25. For QHAG the value was at most 0.25. Regarding DTMV, the enrichment ratio was at most 0.25. For YFLL the value was at most 0.25; for IYFR, at most 0.25. SRKC: the enrichment ratio is at most 0.25. Regarding FYPF, the enrichment ratio is at most 0.25. For the variant RDYC, the enrichment ratio is at most 0.25. As for AYGD, the enrichment ratio was at most 0.25. In the case of VECK, the enrichment ratio was at most 0.25.

As to VRNP, the enrichment ratio is at most 0.25.

Regarding TVLH, the enrichment ratio was at most 0.25. Take YWGP: the enrichment ratio is at most 0.25. For the variant WSIH, the enrichment ratio was at most 0.25. Consider RIAR, for which the enrichment ratio is at most 0.25. Turning to CNFY, the enrichment ratio was at most 0.25. Turning to WMFW, the enrichment ratio was at most 0.25. The same measure for HEQD: at most 0.25; for NIHP: at most 0.25. LVLW: the enrichment ratio is at most 0.25. With YFIE, the enrichment ratio is at most 0.25. On to NQFL, for which the enrichment ratio is at most 0.25.

As to INHT, the enrichment ratio is at most 0.25. As for SCYN, the enrichment ratio is at most 0.25. Take VWMH: the enrichment ratio was at most 0.25. As for QYNW, the enrichment ratio was at most 0.25. With SKMI, the enrichment ratio was determined as 4.44.

Take VCET: the enrichment ratio is at most 0.25. With ECMS, the enrichment ratio is at most 0.25. Consider WHML, for which the enrichment ratio is at most 0.25. Turning to NILC, the enrichment ratio is at most 0.25.

GGMN: the enrichment ratio was at most 0.25.

For the variant IMGQ, the enrichment ratio is at most 0.25. For FNDE, the enrichment ratio is at most 0.25. As to GIKD, the enrichment ratio was at most 0.25. As to LPHQ, the enrichment ratio is at most 0.25. Turning to AKFN, the enrichment ratio is at most 0.25. For the variant SNLE, the enrichment ratio was 4.53.

Take DVTR: the enrichment ratio was at most 0.25. Consider GAKY, for which the enrichment ratio was at most 0.25. For VTFF, the enrichment ratio is at most 0.25.

For RFSH, the enrichment ratio worked out at 0.263. The same measure for AGPQ: at most 0.25. As for GSDT, the enrichment ratio was at most 0.25. Regarding GRCG, the enrichment ratio was at most 0.25. With SGGR, the enrichment ratio was at most 0.25. As for PGRA, the enrichment ratio was at most 0.25. Turning to LKPK, the enrichment ratio is at most 0.25.

For IAQH, the enrichment ratio is at most 0.25.

FQGI: the enrichment ratio is at most 0.25.

In the case of HWCG, the enrichment ratio was at most 0.25.

Take DIVD: the enrichment ratio was at most 0.25. Regarding ELVW, the enrichment ratio was at most 0.25.

Turning to FIFR, the enrichment ratio was at most 0.25. EMNQ: the enrichment ratio is at most 0.25. On to FGRT, for which the enrichment ratio was at most 0.25. LFLD: the enrichment ratio is at most 0.25. For QFWP, the enrichment ratio was at most 0.25. Take QYPE: the enrichment ratio was at most 0.25. HFYG: the enrichment ratio was at most 0.25. Consider FAGS, for which the enrichment ratio was at most 0.25.

Take FMYF: the enrichment ratio was at most 0.25. As to DIHL, the enrichment ratio was at most 0.25. Take NGDW: the enrichment ratio is at most 0.25.

Take KHCC: the enrichment ratio was at most 0.25.

VNDK: the enrichment ratio was at most 0.25. For the variant GPNF, the enrichment ratio was at most 0.25.

As for TRSK, the enrichment ratio was at most 0.25. In the case of LVKK, the enrichment ratio is at most 0.25. Turning to VYHV, the enrichment ratio was at most 0.25. For RCSK the value was at most 0.25. Consider KPEI, for which the enrichment ratio is at most 0.25. MCHI: the enrichment ratio came out at 5.13. For the variant GGIR, the enrichment ratio is at most 0.25. Take NWVQ: the enrichment ratio is at most 0.25. Turning to NIKN, the enrichment ratio is at most 0.25. Take RQGK: the enrichment ratio was at most 0.25.

For the variant APHP, the enrichment ratio is at most 0.25. The same measure for DTFG: at most 0.25. For DKEC the value was at most 0.25; for FLCV, at most 0.25; for HNVF, at most 0.25. For FQWK the value was at most 0.25. Regarding FELD, the enrichment ratio was at most 0.25.

On to MVFK, for which the enrichment ratio turned out to be 1.09. Turning to DHHA, the enrichment ratio was at most 0.25. On to MRFE, for which the enrichment ratio was at most 0.25.

NSTM: the enrichment ratio is at most 0.25. For LELQ the value was 3.51; for NYNK, at most 0.25. As for AHKQ, the enrichment ratio is at most 0.25. As to AKLH, the enrichment ratio came out at 14.6. Take QFRN: the enrichment ratio was at most 0.25.

As for HDHY, the enrichment ratio is at most 0.25. As for QQYF, the enrichment ratio turned out to be 6.45. As to KVSM, the enrichment ratio is at most 0.25. The same measure for SHSM: 10.7. STFS: the enrichment ratio was at most 0.25. Take RSCL: the enrichment ratio is at most 0.25.

Consider FMIN, for which the enrichment ratio is at most 0.25.

Regarding TVHC, the enrichment ratio was at most 0.25.

Regarding VDQT, the enrichment ratio was at most 0.25. Turning to WKVT, the enrichment ratio was at most 0.25. As for AWQD, the enrichment ratio was at most 0.25.

Turning to PMWY, the enrichment ratio is at most 0.25. Turning to QMRN, the enrichment ratio was at most 0.25. The same measure for SQGS: 7.13; for TFTW: at most 0.25; for GIWS: at most 0.25.

For the variant FPFV, the enrichment ratio is at most 0.25. Take PNPL: the enrichment ratio is at most 0.25. For the variant LFEE, the enrichment ratio was at most 0.25. For EQFF the value was at most 0.25; for NMQE, at most 0.25. The same measure for TMYN: 1.79; for DSLP: at most 0.25. On to APQN, for which the enrichment ratio was at most 0.25. GICP: the enrichment ratio was at most 0.25. For SQSY the value was 8.96.

In the case of CSFI, the enrichment ratio was at most 0.25. As for HGLQ, the enrichment ratio worked out at 9.3. The same measure for PCTF: at most 0.25; for DMDW: at most 0.25. On to NVNP, for which the enrichment ratio was at most 0.25. Regarding YLDY, the enrichment ratio is at most 0.25. On to YVVF, for which the enrichment ratio is at most 0.25.

For IFAY, the enrichment ratio was at most 0.25. The same measure for VWAD: at most 0.25; for DNWQ: at most 0.25; for KNRN: at most 0.25.

With DVEM, the enrichment ratio was at most 0.25. Turning to AFNH, the enrichment ratio is at most 0.25.
